Results as given in publication PMC10485003, “Antibiotic hyper-resistance in a class I aminoacyl-tRNA synthetase with altered active site signature motif” (Nature Communications, 2023).
Values joined by “and” are separate entries in the source; they are usually repeats but may differ in a detail not shown here. Equal values may be shown once. Further values from the same series stand in other lists.

Legend:
Experiment in all cases: ATP-PPi exchange assay, mupirocin inhibition of amino acid activation
wt-ALHH DrIleRS2 = biological target: T1, wt-ALHH DrIleRS2 (Deinococcus radiodurans, UniProt Q9RUP8); format: biochemical
T1 construct: hexa-histidine tag (pET28b(+)) (N); made in house; host or cells: E. coli BL21(DE3)
T1 sequence (Q9RUP8 whole entry): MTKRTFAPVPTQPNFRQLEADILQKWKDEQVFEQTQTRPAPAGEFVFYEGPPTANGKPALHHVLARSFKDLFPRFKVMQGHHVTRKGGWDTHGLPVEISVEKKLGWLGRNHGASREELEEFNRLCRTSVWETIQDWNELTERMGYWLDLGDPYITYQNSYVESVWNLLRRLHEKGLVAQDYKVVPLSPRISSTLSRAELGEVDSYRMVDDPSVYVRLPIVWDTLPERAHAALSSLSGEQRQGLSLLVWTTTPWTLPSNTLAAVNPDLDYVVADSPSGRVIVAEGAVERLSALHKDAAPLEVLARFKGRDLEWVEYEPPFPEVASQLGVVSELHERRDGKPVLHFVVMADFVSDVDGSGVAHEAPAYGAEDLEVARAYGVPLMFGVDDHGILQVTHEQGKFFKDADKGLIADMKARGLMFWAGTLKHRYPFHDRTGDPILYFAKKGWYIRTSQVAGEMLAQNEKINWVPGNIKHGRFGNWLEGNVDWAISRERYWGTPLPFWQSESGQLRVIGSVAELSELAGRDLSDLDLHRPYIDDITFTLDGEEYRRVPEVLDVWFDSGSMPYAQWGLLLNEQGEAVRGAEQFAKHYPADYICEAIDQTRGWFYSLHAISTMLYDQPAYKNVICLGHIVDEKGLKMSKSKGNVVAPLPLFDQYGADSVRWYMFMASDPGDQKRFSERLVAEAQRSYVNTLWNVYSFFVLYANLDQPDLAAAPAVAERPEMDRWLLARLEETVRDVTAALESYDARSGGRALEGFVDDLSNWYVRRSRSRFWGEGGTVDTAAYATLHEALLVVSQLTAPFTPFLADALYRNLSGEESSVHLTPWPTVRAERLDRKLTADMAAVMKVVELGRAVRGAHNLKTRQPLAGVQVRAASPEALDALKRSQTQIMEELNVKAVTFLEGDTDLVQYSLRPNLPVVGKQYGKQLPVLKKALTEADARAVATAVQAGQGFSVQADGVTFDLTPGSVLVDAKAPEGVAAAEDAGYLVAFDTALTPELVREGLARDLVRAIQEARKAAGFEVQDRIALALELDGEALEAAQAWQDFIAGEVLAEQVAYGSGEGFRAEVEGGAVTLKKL
Description: (§1) L-Ile and ATP concentrations ranged from 1/10 KM to 10 KM values. When measuring the KI towards one of the substrates, the other was held in saturation (concentrations at least 10 KM). The aliquots of the reaction mixture (1–2.5 μl) were quenched in 2 volumes of 500 mM NaOAc pH = 4.5, 0.1% SDS, and formed ^32P-ATP was separated from the remaining ^32P-PPi by thin-layer chromatography on Polygram CEL 300 PEI UV254 TLC plates (Macherey-Nagel, cat: 801063) using 750 mM KH2PO4 pH=3.5, 4 M urea buffer. Visualization and quantification of the signals was performed using a Typhoon Phosphoimager 5 (General Electric) and accompanying ImageQuant™ TL software (SV: 10.2). The kinetic constants were determined using a global fit option of the competitive inhibition model of GraphPad Prism 6 software (SV: 6.01). All experiments were performed in triplicates. The kcat was determined by dividing the maximal velocity, VM, with the used enzyme concentration. […]
(§2) variable substrate (ATP or Ile) was varied in the range of 0.1 KM to 10 KM. The other substrate (Ile or ATP) was kept in excess at 5 to 10 KM. Data were globally fitted to the competitive inhibition model using GraphPad prism 6.01 for Windows software. The values represent the average value ± SD of three independent experiments. Source data are provided as a Source Data file.

wt-HVGH TtIleRS2 = biological target: T2, wt-HVGH TtIleRS2 (Thermus thermophilus, UniProt P56690); format: biochemical
T2 construct: hexa-histidine tag (pET28b(+)) (N); made in house; host or cells: E. coli Rosetta2 (DE3)
T2 sequence (P56690 1-1043): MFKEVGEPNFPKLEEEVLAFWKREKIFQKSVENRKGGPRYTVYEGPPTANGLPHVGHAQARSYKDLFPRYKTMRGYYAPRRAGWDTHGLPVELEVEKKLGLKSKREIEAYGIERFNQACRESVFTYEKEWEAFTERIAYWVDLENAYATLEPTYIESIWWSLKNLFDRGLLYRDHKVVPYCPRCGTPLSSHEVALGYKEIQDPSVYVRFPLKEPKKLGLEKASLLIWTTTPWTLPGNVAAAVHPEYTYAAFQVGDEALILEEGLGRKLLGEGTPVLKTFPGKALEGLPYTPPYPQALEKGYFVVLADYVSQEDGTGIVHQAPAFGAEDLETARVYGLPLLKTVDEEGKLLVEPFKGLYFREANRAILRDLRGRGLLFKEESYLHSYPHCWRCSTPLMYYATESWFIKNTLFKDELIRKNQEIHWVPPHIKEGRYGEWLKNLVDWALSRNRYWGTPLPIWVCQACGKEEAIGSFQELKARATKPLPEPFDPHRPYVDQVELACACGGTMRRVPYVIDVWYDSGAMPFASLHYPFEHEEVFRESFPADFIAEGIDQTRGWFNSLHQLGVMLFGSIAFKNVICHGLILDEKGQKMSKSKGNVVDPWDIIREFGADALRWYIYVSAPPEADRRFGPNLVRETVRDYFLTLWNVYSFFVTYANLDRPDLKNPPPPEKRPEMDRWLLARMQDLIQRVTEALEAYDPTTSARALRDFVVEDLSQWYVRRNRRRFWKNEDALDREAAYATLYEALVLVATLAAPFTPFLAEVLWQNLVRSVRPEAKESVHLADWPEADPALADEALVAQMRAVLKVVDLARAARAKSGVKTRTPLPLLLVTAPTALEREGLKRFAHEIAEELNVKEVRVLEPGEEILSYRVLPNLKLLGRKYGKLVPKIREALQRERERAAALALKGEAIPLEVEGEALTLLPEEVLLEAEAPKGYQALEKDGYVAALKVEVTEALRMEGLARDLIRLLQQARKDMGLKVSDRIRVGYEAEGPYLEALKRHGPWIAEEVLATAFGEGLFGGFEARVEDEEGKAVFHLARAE
Description: as §1, §2

W130Q PmIleRS2 = format: biochemical, Priestia (Bacillus) megaterium; settings: Replica 1-3
Description: L-Ile and ATP concentrations ranged from 1/10 KM to 10 KM values. When measuring the KI towards one of the substrates, the other was held in saturation (concentrations at least 10 KM). The aliquots of the reaction mixture (1–2.5 μl) were quenched in 2 volumes of 500 mM NaOAc pH = 4.5, 0.1% SDS, and formed ^32P-ATP was separated from the remaining ^32P-PPi by thin-layer chromatography on Polygram CEL 300 PEI UV254 TLC plates (Macherey-Nagel, cat: 801063) using 750 mM KH2PO4 pH=3.5, 4 M urea buffer. Visualization and quantification of the signals was performed using a Typhoon Phosphoimager 5 (General Electric) and accompanying ImageQuant™ TL software (SV: 10.2). The kinetic constants were determined using a global fit option of the competitive inhibition model of GraphPad Prism 6 software (SV: 6.01). All experiments were performed in triplicates. The kcat was determined by dividing the maximal velocity, VM, with the used enzyme concentration.
Source data are provided as a Source Data file. Data are presented as the average value
± SD of three independent experiments. b) A 2Fo-Fc Fourier difference map of the W130Q-HVGH-PmIleRS2:Ile-AMS […]

SMILES: C/C(=C\C(=O)OCCCCCCCCC(=O)O)C[C@@H]1OC[C@H](C[C@@H]2O[C@H]2[C@@H](C)[C@H](C)O)[C@@H](O)[C@H]1O [mupirocin]
- initial velocity vo (wt-ALHH DrIleRS2; c(mupirocin) 2.0 mM, c(Ile) 80.0 μM): 0.02915 mM/min and 0.02832 mM/min and 0.02988 mM/min
- initial velocity vo (wt-ALHH DrIleRS2; c(mupirocin) 2.0 mM, c(Ile) 200.0 μM): 0.03984 mM/min and 0.03947 mM/min and 0.04135 mM/min
- initial velocity vo (wt-ALHH DrIleRS2; c(mupirocin) 2.0 mM, c(Ile) 500.0 μM): 0.04995 mM/min and 0.04848 mM/min and 0.04925 mM/min
- initial velocity vo (wt-ALHH DrIleRS2; c(mupirocin) 5.0 mM, c(ATP) 0.5 mM): 0.02368 mM/min and 0.02258 mM/min and 0.02421 mM/min
- initial velocity vo (wt-ALHH DrIleRS2; c(mupirocin) 5.0 mM, c(Ile) 80.0 μM): 0.03021 mM/min and 0.03043 mM/min and 0.03177 mM/min
- initial velocity vo (wt-ALHH DrIleRS2; c(mupirocin) 5.0 mM, c(Ile) 200.0 μM): 0.04197 mM/min and 0.04271 mM/min and 0.0436 mM/min
- initial velocity vo (wt-ALHH DrIleRS2; c(mupirocin) 5.0 mM, c(Ile) 500.0 μM): 0.04802 mM/min and 0.04908 mM/min
- initial velocity vo (wt-ALHH DrIleRS2; c(mupirocin) 10.0 mM, c(ATP) 0.5 mM): 0.01945 mM/min and 0.01917 mM/min and 0.0196 mM/min
- initial velocity vo (wt-ALHH DrIleRS2; c(mupirocin) 10.0 mM, c(Ile) 200.0 μM): 0.0353 mM/min and 0.03447 mM/min and 0.03555 mM/min
- initial velocity vo (wt-ALHH DrIleRS2; c(mupirocin) 10.0 mM, c(Ile) 500.0 μM): 0.04467 mM/min and 0.0461 mM/min and 0.04563 mM/min
- initial velocity vo (wt-ALHH DrIleRS2; c(mupirocin) 15.0 mM, c(ATP) 0.5 mM): 0.01368 mM/min and 0.01451 mM/min and 0.01402 mM/min
- initial velocity vo (wt-ALHH DrIleRS2; c(mupirocin) 20.0 mM, c(ATP) 0.5 mM): 0.01231 mM/min and 0.01198 mM/min and 0.01278 mM/min
- initial velocity vo (wt-ALHH DrIleRS2; c(mupirocin) 25 mM, c(ATP) 0.5 mM): 0.00879 mM/min and 0.00979 mM/min and 0.00914 mM/min
- initial velocity vo (wt-ALHH DrIleRS2; c(mupirocin) 25.0 mM, c(Ile) 80.0 μM): 0.0147 mM/min and 0.0141 mM/min
- initial velocity vo (wt-ALHH DrIleRS2; c(mupirocin) 25.0 mM, c(Ile) 200.0 μM): 0.0269 mM/min and 0.02755 mM/min and 0.02528 mM/min
- initial velocity vo (wt-ALHH DrIleRS2; c(mupirocin) 25.0 mM, c(Ile) 500.0 μM): 0.0392 mM/min and 0.0375 mM/min and 0.03647 mM/min
- initial velocity vo (wt-HVGH TtIleRS2; c(mupirocin) 0.25 μM, c(Ile) 50.0 μM): 0.03268 mM/min and 0.032 mM/min and 0.03228 mM/min
- initial velocity vo (wt-HVGH TtIleRS2; c(mupirocin) 0.25 μM, c(Ile) 100.0 μM): 0.04214 mM/min and 0.04284 mM/min and 0.04036 mM/min
- initial velocity vo (wt-HVGH TtIleRS2; c(mupirocin) 0.25 μM, c(Ile) 250.0 μM): 0.05149 mM/min and 0.05049 mM/min and 0.05195 mM/min
- initial velocity vo (wt-HVGH TtIleRS2; c(mupirocin) 0.25 μM, c(Ile) 500.0 μM): 0.05528 mM/min and 0.05614 mM/min and 0.05474 mM/min
- initial velocity vo (wt-HVGH TtIleRS2; c(mupirocin) 0.5 μM, c(Ile) 50.0 μM): 0.02391 mM/min and 0.02562 mM/min and 0.0253 mM/min
- initial velocity vo (wt-HVGH TtIleRS2; c(mupirocin) 0.5 μM, c(Ile) 100.0 μM): 0.03543 mM/min and 0.03534 mM/min and 0.03513 mM/min
- initial velocity vo (wt-HVGH TtIleRS2; c(mupirocin) 0.5 μM, c(Ile) 250.0 μM): 0.04652 mM/min and 0.04792 mM/min and 0.04618 mM/min
- initial velocity vo (wt-HVGH TtIleRS2; c(mupirocin) 0.5 μM, c(Ile) 500.0 μM): 0.05261 mM/min and 0.05646 mM/min and 0.05126 mM/min
- initial velocity vo (wt-HVGH TtIleRS2; c(mupirocin) 1.0 μM, c(Ile) 100.0 μM): 0.0275 mM/min and 0.02794 mM/min and 0.02492 mM/min
- initial velocity vo (wt-HVGH TtIleRS2; c(mupirocin) 1.0 μM, c(Ile) 250.0 μM): 0.03985 mM/min and 0.04062 mM/min and 0.0387 mM/min
- initial velocity vo (wt-HVGH TtIleRS2; c(mupirocin) 1.0 μM, c(Ile) 500.0 μM): 0.0485 mM/min and 0.04796 mM/min and 0.04648 mM/min
- initial velocity vo (wt-HVGH TtIleRS2; c(mupirocin) 5.0 μM, c(Ile) 50.0 μM): 0.00676 mM/min and 0.00659 mM/min and 0.00595 mM/min
- initial velocity vo (wt-HVGH TtIleRS2; c(mupirocin) 5.0 μM, c(Ile) 100.0 μM): 0.01129 mM/min and 0.01079 mM/min and 0.01133 mM/min
- initial velocity vo (wt-HVGH TtIleRS2; c(mupirocin) 5.0 μM, c(Ile) 250.0 μM): 0.02173 mM/min and 0.0201 mM/min and 0.02247 mM/min
- initial velocity vo (wt-HVGH TtIleRS2; c(mupirocin) 5.0 μM, c(Ile) 500.0 μM): 0.03028 mM/min and 0.03338 mM/min
- initial velocity vo (wt-HVGH TtIleRS2; c(mupirocin) 10.0 μM, c(Ile) 50.0 μM): 0.00372 mM/min and 0.00331 mM/min and 0.00384 mM/min
- initial velocity vo (wt-HVGH TtIleRS2; c(mupirocin) 10.0 μM, c(Ile) 100.0 μM): 0.00666 mM/min and 0.00687 mM/min and 0.00702 mM/min
- initial velocity vo (wt-HVGH TtIleRS2; c(mupirocin) 10.0 μM, c(Ile) 250.0 μM): 0.01344 mM/min and 0.01334 mM/min and 0.01358 mM/min
- initial velocity vo (wt-HVGH TtIleRS2; c(mupirocin) 10.0 μM, c(Ile) 500.0 μM): 0.02191 mM/min and 0.02198 mM/min and 0.01987 mM/min
- vo (initial enzyme velocity) (W130Q PmIleRS2; c (mupirocin) = 1.0 μM, c (ATP) 2.5 mM, raw data for KI(MUP) towards ATP): 0.0161 mM/min and 0.01682 mM/min and 0.01574 mM/min
- vo (initial enzyme velocity) (W130Q PmIleRS2; c (mupirocin) = 5.0 μM, c (ATP) 2.5 mM, raw data for KI(MUP) towards ATP): 0.00878 mM/min and 0.00859 mM/min and 0.00719 mM/min
- vo (initial enzyme velocity) (W130Q PmIleRS2; c (mupirocin) = 5.0 μM, c (Ile) 120.0 μM, raw data for KI(MUP) towards Ile): 0.03274 mM/min and 0.03399 mM/min
- vo (initial enzyme velocity) (W130Q PmIleRS2; c (mupirocin) = 10.0 μM, c (ATP) 2.5 mM, raw data for KI(MUP) towards ATP): 0.00518 mM/min and 0.00484 mM/min and 0.00406 mM/min
- vo (initial enzyme velocity) (W130Q PmIleRS2; c (mupirocin) = 25.0 μM, c (ATP) 2.5 mM, raw data for KI(MUP) towards ATP): 0.00162 mM/min and 0.0022 mM/min and 0.00235 mM/min
